In the supplement of paper PMC7826260:
Some of the results follow. The data describe in vitro nicking of single-stranded DNA by Rep domains for 1 h at 37 °C with 3 µM enzyme; only the middle of the 90-letter strands is printed. A value is the log2 ratio of uncut reads to the pool without enzyme; uncut sequences lie near 0, cut ones below; no hit call is given. Shares of all reads are compared; uncut strands gain when others are lost, and binding without cutting may add a little.

Key:
Assay in all cases: uncleaved DNA left, log2 of reads against the no-enzyme library (log2 ratio); higher = less cleavage (more negative = more Rep cleavage of the k-mer); sequences stand for … in CTCGTCCG…ACCGGAGA
[1] = tested on: T1, Rep nickase domain of Muscovy duck circovirus
T1 sequence (protein, residues 1-111, tag omitted): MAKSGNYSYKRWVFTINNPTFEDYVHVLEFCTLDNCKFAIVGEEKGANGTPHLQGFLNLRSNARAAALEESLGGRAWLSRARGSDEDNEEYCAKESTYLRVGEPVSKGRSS
Description: (§1)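 A pool of 90-nt single-stranded DNAs with seven random bases just before the constant AC of the nick site (name = the seven bases) was cut by 3 µM recombinant His6-SUMO-tagged Rep nickase domain (300 nM DNA, 50 mM HEPES pH 8.0, 50 mM NaCl, 1 mM MnCl2, 1 h, 37 °C, three replicates). Uncut DNA was amplified and sequenced.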

[2] = tested on: T2, Rep nickase domain of banana bunchy top virus
T2 sequence (protein, residues 1-94, tag omitted): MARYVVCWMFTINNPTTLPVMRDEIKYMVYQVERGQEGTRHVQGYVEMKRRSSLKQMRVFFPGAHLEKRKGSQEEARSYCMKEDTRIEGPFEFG
Description: as §1

[3] = tested on: T3, Rep nickase domain of cabbage leaf curl virus
T3 sequence (protein, residues 1-116, tag omitted): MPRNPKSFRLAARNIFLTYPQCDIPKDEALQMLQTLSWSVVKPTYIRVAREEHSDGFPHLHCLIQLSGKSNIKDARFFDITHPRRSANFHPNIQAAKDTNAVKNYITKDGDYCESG
Description: as §1

[4] = tested on: T4, Rep nickase domain of chickpea chlorotic dwarf virus
T4 sequence (protein, residues 1-124, tag omitted): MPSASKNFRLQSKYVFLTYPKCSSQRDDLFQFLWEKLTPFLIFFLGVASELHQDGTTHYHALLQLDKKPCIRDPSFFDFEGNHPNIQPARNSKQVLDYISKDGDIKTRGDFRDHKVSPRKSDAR
Description: as §1

[5] = tested on: T5, Rep nickase domain of faba bean necrotic yellows virus
T5 sequence (protein, residues 1-98, tag omitted): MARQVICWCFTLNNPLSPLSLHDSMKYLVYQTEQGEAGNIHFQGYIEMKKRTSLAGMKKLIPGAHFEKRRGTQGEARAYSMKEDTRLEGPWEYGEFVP
Description: as §1

[6] = tested on: T6, Rep nickase domain of maize striate mosaic virus
T6 sequence (protein, residues 1-117, tag omitted): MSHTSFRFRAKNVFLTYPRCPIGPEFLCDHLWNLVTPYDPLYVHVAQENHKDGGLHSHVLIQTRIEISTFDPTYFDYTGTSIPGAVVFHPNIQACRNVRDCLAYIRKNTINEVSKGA
Description: as §1

[7] = tested on: T7, Rep nickase domain of porcine circovirus 2
T7 sequence (protein, residues 2-116, tag omitted): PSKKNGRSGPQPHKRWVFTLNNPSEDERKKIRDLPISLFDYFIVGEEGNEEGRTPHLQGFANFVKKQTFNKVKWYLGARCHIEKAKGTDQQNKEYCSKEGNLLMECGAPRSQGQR
Description: as §1

[8] = tested on: T8, Rep nickase domain of tomato golden mosaic virus
T8 sequence (protein, residues 1-124, tag omitted): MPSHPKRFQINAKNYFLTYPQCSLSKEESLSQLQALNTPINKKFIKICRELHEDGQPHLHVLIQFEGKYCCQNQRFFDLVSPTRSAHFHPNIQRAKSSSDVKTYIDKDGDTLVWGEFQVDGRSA
Description: as §1

[9] = tested on: T9, Rep nickase domain of tomato yellow leaf curl virus
T9 sequence (protein, residues 1-136, tag omitted): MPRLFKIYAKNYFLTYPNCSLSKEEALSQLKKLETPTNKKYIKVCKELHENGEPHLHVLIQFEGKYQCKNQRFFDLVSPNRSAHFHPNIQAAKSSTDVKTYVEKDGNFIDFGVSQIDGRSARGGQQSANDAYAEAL
Description: as §1

[10] = tested on: T10, Rep nickase domain of wheat dwarf virus
T10 sequence (protein, residues 1-137, tag omitted): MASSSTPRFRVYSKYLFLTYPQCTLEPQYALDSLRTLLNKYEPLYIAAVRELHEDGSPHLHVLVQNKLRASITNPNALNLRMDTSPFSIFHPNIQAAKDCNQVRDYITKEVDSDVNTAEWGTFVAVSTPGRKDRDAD
Description: as §1

Sequence | uncleaved DNA left (log2) [1] | uncleaved DNA left (log2) [2] | uncleaved DNA left (log2) [3] | uncleaved DNA left (log2) [4] | uncleaved DNA left (log2) [5] | uncleaved DNA left (log2) [6] | uncleaved DNA left (log2) [7] | uncleaved DNA left (log2) [8] | uncleaved DNA left (log2) [9] | uncleaved DNA left (log2) [10]
GCGGTCG | 0.0223 | 0.00989 | -0.57 | -0.172 | -0.00391 | -0.462 | 0.128 | 0.11 | 0.0505 | -0.118
TGTTTCA | -0.0357 | 0.0268 | 0.254 | 0.224 | -0.0439 | 1.26 | 0.00328 | 0.0495 | 0.0704 | -0.0245
CGTAATC | 0.0593 | 0.134 | 0.154 | 0.148 | -0.139 | -0.341 | 0.0458 | -0.17 | 0.0439 | 0.0529
AGAGTAT | 0.00849 | 0.0998 | 0.141 | 0.73 | -0.0557 | 1.22 | -0.145 | -0.00491 | -0.00509 | 0.045
AACTCCC | -0.297 | -0.0584 | -0.174 | -0.464 | -0.0399 | -0.0367 | -1.73 | -0.0812 | 0.0435 | -0.125
GGTTGAG | 0.158 | 0.077 | -0.23 | 0.316 | 0.122 | -0.458 | 0.304 | 0.0395 | 0.198 | 0.0635
GTTCTTA | -0.0227 | 0.0759 | 0.246 | 0.759 | 0.0663 | 1.79 | 0.025 | -0.0225 | 0.0597 | 0.0568
TCCCCAG | -0.184 | -0.175 | -0.526 | -0.889 | -0.203 | -1.05 | -0.143 | -0.0661 | -0.117 | -0.113
TGGCAAC | -0.0619 | 0.105 | 0.409 | 0.903 | -0.0977 | 1.62 | 0.128 | -0.0287 | 0.0932 | 0.188
ATAATCA | 0.00791 | 0.0844 | 0.313 | -0.904 | 0.0731 | -0.397 | 0.0296 | 0.00356 | 0.0966 | 0.176
ACTGCCT | -0.0726 | -0.0648 | -0.0296 | 0.0268 | 0.0297 | 0.273 | -0.114 | 0.121 | -0.0769 | -0.00763
CTTAGTC | 0.15 | 0.166 | -0.0194 | -0.0631 | 0.0292 | -0.758 | 0.163 | -0.049 | 0.137 | 0.116
CGGGGTT | 0.0359 | -0.0237 | 0.46 | 0.811 | -0.121 | 1.69 | -0.0536 | -0.137 | -0.0784 | -0.0268
AGTATCC | 0.152 | 0.0931 | 0.325 | 0.556 | 0.117 | 0.272 | 0.00264 | -0.00879 | 0.202 | 0.185
TTGCGTA | 0.14 | 0.162 | -0.646 | 0.403 | 0.164 | -0.625 | 0.168 | 0.0375 | 0.161 | 0.0129
TCAGAAT | 0.0037 | 0.0603 | 0.313 | 0.747 | 0.00218 | 1.24 | 0.133 | 0.121 | -0.0796 | 0.057
TTGCCAC | -0.0381 | -0.244 | -0.432 | -0.722 | -0.0159 | -0.858 | -1.38 | -0.00197 | 0.112 | -0.0439
AAGCTGC | 0.0779 | -0.0395 | 0.383 | 1.6 | -0.0144 | 1.64 | 0.189 | 0.0577 | -0.00443 | 0.168
GGCCACT | -0.0789 | -0.0588 | 0.446 | 0.945 | -0.0683 | 1.78 | 0.0395 | -0.12 | 0.0575 | 0.12
CTTAAAG | -0.124 | 0.0603 | -0.652 | -0.494 | -0.0351 | -1.07 | 0.169 | -0.0683 | 0.0398 | -0.0928
CGGCGTA | 0.00982 | 0.0309 | -0.28 | -0.321 | -0.149 | -0.26 | 0.0318 | 0.0138 | 0.089 | -0.0394
CAAGCGA | 0.0847 | 0.134 | -0.672 | -0.239 | 0.00834 | -0.965 | 0.194 | -0.0624 | 0.0974 | 0.0565
ATCTACC | 0.00783 | -0.0742 | -0.187 | -1.81 | -0.0339 | -0.301 | -0.478 | -0.0456 | -0.0186 | 0.0344
TGTAGCA | -0.0215 | 0.0411 | -0.0213 | -0.538 | -0.064 | -0.601 | -0.2 | -0.0492 | 0.0738 | -0.00966
TTTAGAG | 0.0349 | 0.0509 | -0.336 | -0.552 | 0.024 | -1.13 | 0.183 | 0.0808 | 0.0884 | -0.0487
AAAGCTC | 0.0227 | -0.0172 | 0.188 | 0.272 | 0.0443 | 0.862 | 0.131 | 0.119 | -0.0711 | -0.0115
ATTTACG | -0.0796 | -0.0422 | -0.96 | -0.396 | -0.021 | -1.14 | 0.204 | -0.0738 | -0.109 | -0.143
CCCAACG | 0.0146 | 0.0365 | -0.83 | -0.229 | 0.0839 | -1.14 | 0.266 | 0.0688 | 0.0734 | 0.00374
TTCTTAC | -1.23 | -0.175 | -0.0552 | -2.11 | -0.0977 | -0.304 | -0.997 | -0.048 | -0.124 | -0.202
CGATGAG | 0.0614 | 0.181 | -0.498 | -0.248 | 0.12 | -0.859 | 0.26 | -0.0566 | 0.0989 | -0.0249
